The whole screen tested about 48,000 compounds, of which about 550 (1.1%) were called active. Inconclusive results (about 4%) are left out. Cut-off read from the data, not from the text of the source: active = potency below about 15 µM; inconclusive = mostly about 16 µM to 33 µM; inactive = weaker than that. This is one part of the list.

Among the data in PubChem BioAssay AID360 (National Center for Advancing Translational Sciences (NCATS), 2006) are Potency values, retold here.
Potency is the fitted concentration of half-maximal effect.

Sequence of UniProt P04062 (P04062 whole entry, looked up): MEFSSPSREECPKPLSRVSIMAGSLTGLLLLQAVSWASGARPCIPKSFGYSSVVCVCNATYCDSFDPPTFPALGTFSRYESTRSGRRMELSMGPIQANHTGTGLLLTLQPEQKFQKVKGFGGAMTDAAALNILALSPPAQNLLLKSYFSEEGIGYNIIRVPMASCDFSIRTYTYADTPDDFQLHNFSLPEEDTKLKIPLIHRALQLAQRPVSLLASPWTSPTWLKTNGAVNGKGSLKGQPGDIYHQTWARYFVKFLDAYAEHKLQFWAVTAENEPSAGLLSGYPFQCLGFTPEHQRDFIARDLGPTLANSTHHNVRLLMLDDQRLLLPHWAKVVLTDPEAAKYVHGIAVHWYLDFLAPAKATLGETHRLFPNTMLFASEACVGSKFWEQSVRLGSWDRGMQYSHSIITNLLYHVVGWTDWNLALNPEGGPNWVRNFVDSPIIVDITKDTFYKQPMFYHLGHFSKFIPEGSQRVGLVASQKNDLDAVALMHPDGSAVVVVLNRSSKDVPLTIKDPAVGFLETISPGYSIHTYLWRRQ

The target in the assay is Lysosomal acid glucosylceramidase (Homo sapiens) (UniProt P04062). As to the kind of experiment: Glucocerebrosidase.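 Note: the screen sought inhibitors.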 As to conditions: purified enzyme, resorufin glucoside fluorescence (screen aimed at inhibitors), 20 min. In outline:
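Compounds titrated against 0.2 nM normal enzyme, 30 uM resorufin beta-D-glucopyranoside substrate, citrate/phosphate buffer with taurocholate and tween-20, pH 5.9. Reaction ran 20 min at room temperature; fluorescence (Ex 548/Em 600) gave AC50.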
Take `COc1ccc(COCC(O)CN2CCOCC2)cc1OC` (stereo not drawn): the Potency was inactive: > 76.9 µM.

Consider `CN1CC(=O)NC1=NC(=O)c1cc(F)c(F)cc1Cl`, for which the Potency was inactive: > 76.9 µM.

As to `CC(Sc1nnnn1-c1ccccc1)C(=O)Nc1ccc(Cl)cn1` (stereo not drawn), the Potency was inactive: > 76.9 µM.

With `CC1CCCCC1NC(=O)Cn1[nH]c(=O)c2ccccc2c1=O` (stereo not drawn), the Potency was inactive: > 76.9 µM.

For `CC1=C(C(=O)Nc2cccnc2)C(c2cccnc2)n2nc(-c3cccs3)nc2N1` (stereo not drawn), the Potency was inactive: > 76.9 µM.

For `c1ccc(-c2nnc(-c3ccco3)n2-c2ccccc2)cc1`, the Potency is inactive: > 76.9 µM.

On to `O=C(Cc1c(F)cccc1Cl)NCC1CCCO1` (stereo not drawn), for which the Potency was inactive: > 76.9 µM.

For `COc1cc(NC(=O)c2ccco2)ccc1NC(=O)c1ccccc1Cl`, the Potency was inactive: > 76.9 µM.

In the case of `COc1ccc(N(Cc2cc(=O)[nH]c3ccccc23)C(=O)c2ccco2)cc1`, the Potency was inactive: > 76.9 µM.

With `Cc1cccc(-c2nnc3sc(-c4ccccc4)nn23)c1`, the Potency was inactive: > 76.9 µM.

Consider `CCCc1[nH]nc2c1C(c1ccccc1OC)C(C#N)=C(N)O2` (stereo not drawn), for which the Potency was inactive: > 76.9 µM.

`Cc1cc(-c2ccccc2)nc(=O)[nH]1`: the Potency was inactive: > 76.9 µM.

As for `COc1ccc(-n2nc(C(=O)Nc3ccc4c(c3)OCO4)c3ccccc3c2=O)c(OC)c1`, the Potency is inactive: > 76.9 µM.

As for `Cc1cccc(NC(=O)CSc2nnc([C@@H]3CCCN3C(=O)OC(C)(C)C)o2)c1C`, the Potency was inactive: > 76.9 µM.

On to `CN(CCNC(=O)C1CCN(S(=O)(=O)N2CCOCC2)CC1)CCc1ccccc1`, for which the Potency was inactive: > 76.9 µM.

For `Cn1c(=O)c2c(nc(N3CCCCCC3)n2CC(O)COc2ccc(Cl)cc2)n(C)c1=O` (stereo not drawn), the Potency is inactive: > 76.9 µM.

As to `CC(C)(C)n1nnnc1C(c1cccs1)N1CCCC2(CCCCC2)C1` (stereo not drawn), the Potency was inactive: > 76.9 µM.

Consider `Oc1ccccc1/C=N/c1c(-c2ccco2)nc2ccccn12`, for which the Potency is inactive: > 76.9 µM.

Regarding `COc1ccc(CCNc2nc(-c3ccco3)cc(C(F)(F)F)n2)cc1OC`, the Potency is inactive: > 76.9 µM.

`COC(=O)/C=c1\sc2n(c1=O)C(C)=CC(C)(C)N=2`: the Potency is inactive: > 76.9 µM.

Take `COc1ccc2c(c1)cc(C(=O)O)n2C`: the Potency was inactive: > 76.9 µM.

On to `Cc1cc(C)nc(/N=C2\NC(=O)CC3C(=O)NCCN23)n1` (stereo not drawn), for which the Potency was inactive: > 76.9 µM.

As for `CCOc1cc(C)c(Cl)cc1S(=O)(=O)n1cnc2ccccc21`, the Potency is inactive: > 76.9 µM.

On to `Cc1c(C(=O)N2CCCc3ccccc32)oc2ccc(S(=O)(=O)N3CCOCC3)cc12`, for which the Potency is inactive: > 76.9 µM.

In the case of `O=C(Cc1c(F)cccc1Cl)Nc1ccncc1`, the Potency is inactive: > 76.9 µM.

On to `CC(C)(CO)NC(=O)C(c1ccccc1)c1ccccc1`, for which the Potency was inactive: > 76.9 µM.

Turning to `Cc1ccc(-c2nnc(SCC(=O)Nc3ccccc3N3CCOCC3)o2)cc1`, the Potency was inactive: > 76.9 µM.

Consider `O=C(NCC1CCCO1)C1c2ccccc2C(=O)N1C1CCCCCCC1` (stereo not drawn), for which the Potency is inactive: > 76.9 µM.

Turning to `O=C(Oc1ccccc1)c1cccc2cccnc12`, the Potency was inactive: > 76.9 µM.

For `COc1ccc(CC(=O)NCc2ccccn2)cc1OC`, the Potency was inactive: > 76.9 µM.

In the case of `CCC1CCCCN1C(=O)COC(=O)c1ccc(S(=O)(=O)N2CCOCC2)cc1` (stereo not drawn), the Potency was inactive: > 76.9 µM.

`CC(NC(=O)c1ccco1)C(c1cccs1)N1CCN(c2ccc(F)cc2)CC1` (stereo not drawn): the Potency was inactive: > 76.9 µM.

For the compound `Cc1cc(C)n(-c2ccc(C(=O)Nc3ccc(S(=O)(=O)NCc4ccco4)cc3)cc2)n1`, the Potency entry was “inactive”.

For the compound `CCOC(=O)N1CCC(N(C(=O)Nc2cccc(OC)c2)C(C)CC)CC1` (stereo not drawn), the Potency is inactive: > 76.9 µM.

Consider `C=CCn1c(N)c(C(=O)N2CCOCC2)sc1=S`, for which the Potency was inactive: > 76.9 µM.

Take `O=C(CN(C(=O)Cn1nnc(-c2ccc(F)cc2)n1)C1CCCC1)NC1CCCC1`: the Potency is inactive: > 76.9 µM.

With `O=c1c2ccccc2nnn1CSc1nnc2sc3ccccc3n12`, the Potency was inactive: > 76.9 µM.

In the case of `COc1ccccc1OCCSc1nnc(C)n1-c1ccccc1`, the Potency is inactive: > 76.9 µM.

Take `N#Cc1cccc(C(c2nnnn2CCc2ccccc2)N2CCN(C3CCCCC3)CC2)c1` (stereo not drawn): the Potency was inactive: > 76.9 µM.

On to `Cc1cccc(-n2c(CNC(=O)COc3ccccc3)nnc2SCC(=O)Nc2nccs2)c1`, for which the Potency was inactive: > 76.9 µM.

With `CCOc1ccc(N/C(SC)=C(/C#N)C(N)=O)cc1`, the Potency is inactive: > 76.9 µM.

Consider `CS(=O)(=O)N1CCN(C(=O)C2c3ccccc3Oc3ccccc32)CC1`, for which the Potency was inactive: > 76.9 µM.

For the compound `CCOc1ccccc1N(CC(=O)N1CCOCC1)S(=O)(=O)c1ccccc1`, the Potency is inactive: > 76.9 µM.

Take `CN(Cc1cc2ccccc2[nH]c1=O)C(=O)C1CCCCC1`: the Potency is inactive: > 76.9 µM.

`O=C(NCc1cccnc1)C1c2ccccc2C(=O)N1Cc1ccco1` (stereo not drawn): the Potency is inactive: > 76.9 µM.

For `O=C(O)CSc1nnc(-c2ccncc2)n1C1CCCCC1`, the Potency is inactive: > 76.9 µM.

As to `Fc1cccc(-c2cc3nc4c(c(N5CCC6(CC5)OCCO6)n3n2)CCCC4)c1`, the Potency entry is “inactive”.

For `Cc1nc(NC(=O)COC(=O)C(NC(=O)c2ccco2)C(C)C)c(Cl)cc1Cl` (stereo not drawn), the Potency was inactive: > 76.9 µM.

For the compound `O=C(CSCC(=O)Nc1nccs1)Nc1ccccc1`, the Potency is inactive: > 76.9 µM.

For `O=C(CCCCCNS(=O)(=O)c1ccc(Br)cc1)NCCN1CCOCC1`, the Potency result is “inactive”.

In the case of `Cc1ccc(C(C(=O)NC2CCCC2)N(Cc2ccco2)C(=O)CCC(=O)Nc2ccccn2)cc1` (stereo not drawn), the Potency was inactive: > 76.9 µM.

Turning to `CCn1c(=O)n(CC(=O)N2CCN(c3ccccc3F)CC2)c(=O)c2ccccc21`, the Potency is inactive: > 76.9 µM.

With `COc1ccc(NC(=O)c2ccc(-n3nc(C)c[n+]3[O-])cc2)cc1`, the Potency was inactive: > 76.9 µM.

In the case of `O=C(CCc1nc(-c2ccccc2F)no1)NC1CCCCC1`, the Potency was inactive: > 76.9 µM.

Turning to `Cc1ccccc1CN1CCN(CC(=O)NCCCN2CCN(c3ccc(F)cc3)CC2)C1=O`, the Potency is inactive: > 76.9 µM.

As to `O=C(OC1CSc2nc3ccccc3n2C1)c1ccco1` (stereo not drawn), the Potency was inactive: > 76.9 µM.

`COCCSc1nc2sc3c(c2c(=O)n1-c1ccccc1)CCN(C)C3`: the Potency was inactive: > 76.9 µM.

As for `COc1ccc(-c2cc(C(=O)Nc3c(C)nn(Cc4ccccc4Cl)c3C)no2)cc1`, the Potency was inactive: > 76.9 µM.

Take `Cc1cc(C(=O)CSc2nnc(N)s2)c(C)n1CCc1ccc(Cl)cc1`: the Potency is inactive: > 76.9 µM.

In the case of `COc1cccc(-c2cc3nc(-c4ccccc4)cc(N4CCC5(CC4)OCCO5)n3n2)c1`, the Potency is inactive: > 76.9 µM.

Regarding `O=C(c1ccc(Cl)c(F)c1F)N1CCCC1`, the Potency is inactive: > 76.9 µM.

As for `CN(CC(=O)Nc1ccncc1)S(=O)(=O)c1ccccc1`, the Potency was inactive: > 76.9 µM.

Turning to `COc1cc2ccccc2cc1C(=O)N1CCN(C)CC1`, the Potency was inactive: > 76.9 µM.

Consider `O=C(CSc1nnc(Cc2ccccc2)n1Cc1ccco1)NC1CCCC1`, for which the Potency was inactive: > 76.9 µM.

In the case of `COc1ccccc1N1CCN(C(=O)c2sc3nc(-c4ccccc4)cn3c2C)CC1`, the Potency was inactive: > 76.9 µM.

Take `O=C(O)c1cc(NS(=O)(=O)c2cccc3ccccc23)ccc1O`: the Potency is inactive: > 76.9 µM.

With `CCOC(=O)CSc1cc(C)nc(NC(C)=O)n1`, the Potency is inactive: > 76.9 µM.

Turning to `CC(=O)Nc1cccc(N2CCCC2=O)c1`, the Potency is inactive: > 76.9 µM.

Take `Clc1ccc(-c2nnc3sc(-c4ccc(Br)o4)nn23)cc1`: the Potency was inactive: > 76.9 µM.

`O=C(O)CCN1C(=O)c2ccncc2C1=O`: the Potency is inactive: > 76.9 µM.

For the compound `O=C(NC1CS(=O)(=O)CC1NCc1ccco1)c1ccccc1` (stereo not drawn), the Potency is inactive: > 76.9 µM.

In the case of `Nc1nnc(CSCc2ccccc2)s1`, the Potency was inactive: > 76.9 µM.

Regarding `COCCSc1ccccc1C(=O)N1CCCC1`, the Potency is inactive: > 76.9 µM.

Take `Cc1cc(C(=O)NCc2cccnc2)cs1`: the Potency was inactive: > 76.9 µM.

Consider `CCn1c(=O)c(C(=O)Nc2cnccn2)c(O)c2ccccc21`, for which the Potency was inactive: > 76.9 µM.

Take `Nc1nc2n(n1)C(c1ccco1)CC(c1ccccc1)N2` (stereo not drawn): the Potency was inactive: > 76.9 µM.

Turning to `Cn1ncc2c1ncn1nc(COc3ccc4ccccc4c3)nc21`, the Potency was inactive: > 76.9 µM.

As to `COC(=O)c1ccc(NC(=O)CSc2nnc(COc3ccccc3)n2C)cc1`, the Potency was inactive: > 76.9 µM.

As to `COCCNC(=O)C(c1ccc(F)cc1)N(CCOC)C(=O)CCC(=O)Nc1nccs1` (stereo not drawn), the Potency is inactive: > 76.9 µM.

As for `Cc1ccc2nc(NC(=O)CCNS(=O)(=O)c3cccs3)sc2c1`, the Potency was inactive: > 76.9 µM.

For `CCC1CCCCN1C(=O)N[C@@H](CCSC)C(=O)OC` (stereo partly drawn), the Potency was inactive: > 76.9 µM.

In the case of `C=CCn1c(NCc2ccccc2)nc2ccccc21`, the Potency is inactive: > 76.9 µM.

With `O=C(O)C1CC=C(Cl)CC1C(=O)NCC1OCCc2ccccc21` (stereo not drawn), the Potency was inactive: > 76.9 µM.

As for `Cc1ccc(CNc2nc3ccccc3n3nnnc23)cc1`, the Potency is inactive: > 76.9 µM.

Regarding `Cc1ccccc1-n1c(=O)cc(N2CCc3ccccc3C2)[nH]c1=O`, the Potency is inactive: > 76.9 µM.

Turning to `Cn1c(=O)c2c(-c3ccccc3)n(Cc3cccnc3)cc2n(C)c1=O`, the Potency is inactive: > 76.9 µM.

For the compound `COCCCNC(=O)C1CCCCN1S(=O)(=O)c1ccc(F)cc1` (stereo not drawn), the Potency is inactive: > 76.9 µM.

Take `CCCN1C(=O)SC(CC(=O)Nc2ccccc2)C1=O` (stereo not drawn): the Potency is inactive: > 76.9 µM.

On to `Cc1cc(OCC(=O)NCc2nc(-c3ccccc3)no2)c(C)cc1Br`, for which the Potency was inactive: > 76.9 µM.

Regarding `COCCCNC(=O)CN1C(=O)c2ccccc2C1=O`, the Potency is inactive: > 76.9 µM.

As for `O=C(CSc1nnc(-c2ccccc2Br)o1)N1CCN(C(=O)c2ccco2)CC1`, the Potency was inactive: > 76.9 µM.

With `Cc1cccc(-c2nnc(NC(=O)c3ccc(Cl)cc3)o2)c1`, the Potency was inactive: > 76.9 µM.

On to `CN1CCN(S(=O)(=O)c2ccc(NC(=O)c3ccc(F)cc3)cc2)CC1`, for which the Potency is active: 14.1 µM.
